The list shows a part of the results.
T1: UNK ZnF1-3 (human, UniProt Q9C0B0 31-174)
T1 sequence: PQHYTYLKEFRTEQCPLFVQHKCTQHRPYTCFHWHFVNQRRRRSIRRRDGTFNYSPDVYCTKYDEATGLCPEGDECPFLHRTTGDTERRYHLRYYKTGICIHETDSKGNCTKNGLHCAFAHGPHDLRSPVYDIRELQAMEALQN

B1: chr7:141441981:141441982:+_ENSG00000106028_ENST00000265304|hu_mus|hu_hu_hu_mus_False|18_18 (ssRNA)
RNA: GGGAGUUCUACAGUCCGACGAUCCUCAUGUCUUACAAACUGACGAAAUACCUGUAACACAGGUCUUCGAAACAUGGCUUCUGUUUUUCUUACAACCUAAUCUUUAGGCUUUUCCUACCUGACGAUCAGAAAAGAGAAAAAUGACAACAGAGGAUUGAGCAUCA
B2: chr2:130369808:130369809:+_ENSMUSG00000027303_ENSMUST00000028769|mus_hu|FALSE|FALSE (ssRNA)
RNA: GGGAGUUCUACAGUCCGACGAUCGUUGGCUGGAAGGUUUCCAGUCCGCAUCUUGUCAUUCUGGAUUUUGAUUGAUGUUAACUUCUUAAACUCCUCCUCUAAUCCAUUGUUGCUGGUCCCUGGGAUUUUGUUGUAAAUUUUCUGCAACAGAGGAUUGAGCAUCA
B3: chr22:38882006:38882007:-_ENSG00000100201_ENST00000396821|hu_mus|motif|central (ssRNA)
RNA: GGGAGUUCUACAGUCCGACGAUCUGGAGGAGGGGGAGGGGGAGGGGGAGGGUACUGGUAAGCAGUCUGCCCCAUGUAGCCGGUCAUAUUGGUAGCUCCUGGAGGCUGUGCAAACUGCUGUGACAUCAGUGGCUGUGGCUGCUGCAACAGAGGAUUGAGCAUCA
B4: 25105453_25107290_353_CDS_ENSMUSG00000006471_ENSMUST00000100329|mouse|control|control (ssRNA)
RNA: GGGAGUUCUACAGUCCGACGAUCUAUGUUGAGCUCCUCAGCCCCUAUGCUGGGGACCUCCUGAAGAAACUGAAAGAUGAACUUGGAGGGCAAGUUGGCAUAUGAGGAAUCCCCGAGGCCUAGGACAGCAAAAUCCAUUUGACACAACAGAGGAUUGAGCAUCA
B5: chr2:179515052:179515053:+_ENSMUSG00000000305_ENSMUST00000000314|mus_hu|mus_mus_mus_hu_False|1_68 (ssRNA)
RNA: GGGAGUUCUACAGUCCGACGAUCGCUGUCCCAUGCAGUCACCGUGAACGCCACCUGCUCGGAGGGGAUCUUCAACUCCCGGGUGGCGAAGACUGUCCCAUCUGCCCCAACUUUGAAGUCCAUGCUGUUGGUCUCAUACUGCAUCAACAGAGGAUUGAGCAUCA
B6: chr9:49312907:49312908:-_ENSMUSG00000039542_ENSMUST00000166811|mus_mus|FALSE|FALSE (ssRNA)
RNA: GGGAGUUCUACAGUCCGACGAUCAGCUGGCAUUUGGCAUGCUUCCUAAGAAACAGGAGUCCCCGUGGGAACUGAACUCAGCUAGCCAGAGUGCCACACUCCGCAUAUGGAACAAACACAAACUGAACGGAAAGUAUAACUUAUCAACAGAGGAUUGAGCAUCA
B7: 165208209_165208784_503_CDS_ENSMUSG00000017667_ENSMUST00000103084|mouse|control|control (ssRNA)
RNA: GGGAGUUCUACAGUCCGACGAUCCAAGUUUUCCACUACCCAGGGCUCUUUUCCUUGCUCCAGUUUUAAGAUCACAUCUGGUUUGCUCACAUGAAGCCCCACCGCGAUGAGGUUACUGUAGGUCUCCAGCAUCACAUCCCUGUACAACAGAGGAUUGAGCAUCA
B8: chr4:95690885:95690886:+_ENSMUSG00000028572_ENSMUST00000156910|mus_mus|mus_mus_mus_hu_False|98_108 (ssRNA)
RNA: GGGAGUUCUACAGUCCGACGAUCUUUAUUUUUAGAAAAUGUUAAAUCUAAAAUAUUUUCAAAGGCUUAUUUUAUUUUACCAGAAGUCACAGGCAAGCAGACACUACAAGAAUAUAUGAAAAUGAAACUCAACAAUAUAACUGUCAACAGAGGAUUGAGCAUCA
B9: chr11:97543600:97543601:+_ENSMUSG00000038437_ENSMUST00000044730|mus_mus|motif|central (ssRNA)
RNA: GGGAGUUCUACAGUCCGACGAUCUUGGCUGCCCCAGGUCCAGAGGAAGAAAUGACAGAUAGACAGACAGGUUAAACAGACGGACCAUCUCUCUCUUUUUCUCUCACUCACACACACACUCACACACUCACAAUCUGUGGAGUCCAACAGAGGAUUGAGCAUCA
B10: chr4:40680069:40680070:+_ENSMUSG00000028410_ENSMUST00000030118|mus_hu|FALSE|FALSE (ssRNA)
RNA: GGGAGUUCUACAGUCCGACGAUCAAAAUCAGAGCUUUUAUAUUUGCGUUUAUUCUUCAUUUAACUUUUUAAAACACUACUAUAGUUUAUUAAAACAAAAACAAGAGCAAGUAGUGAGCAUAUUAUGAUUACAGUCCUUCACUCCAACAGAGGAUUGAGCAUCA
B11: chr2:64863866:64863867:-_ENSG00000179833_ENST00000313349|hu_mus|FALSE|FALSE (ssRNA)
RNA: GGGAGUUCUACAGUCCGACGAUCAAUUAAGACAGUCUUCUGCAAGCUGGGCUCUGUCAGAGGCCUGUGGUUAUACAGUUUCAUAAGGGAAAUGUUGAAGAUAGUCUGGCGCUGUAAGGUGUAAGACACCCUGGAUGGACCGUCCAACAGAGGAUUGAGCAUCA
B12: 95382642_95384677_1716_CDS_ENSMUSG00000032407_ENSMUST00000079659|mouse|control|control (ssRNA)
RNA: GGGAGUUCUACAGUCCGACGAUCUCGCAAGAUUUCUUCUAACUUAUCCCGCUGUUCUUCCUUGAGUGCUCCCUUCUUACUAGGUUCUUCUACAAACGCUUCUGUCUCUUGCUCCUCUGACAUCCCAUGAAGGUAUGGAUUUAACAACAGAGGAUUGAGCAUCA
B13: chr7:135612270:135612271:-_ENSG00000105887_ENST00000393085|hu_mus|hu_hu_hu_mus_False|88_98 (ssRNA)
RNA: GGGAGUUCUACAGUCCGACGAUCGUUUUUUUCUGAGUAAGUAUUACUUCAGUGGAGGGAAAACAAAACUUAACCUUUUAUUAAUGCGUGUUGUACCAAAAGCAGACAUUUUAGCUUCAUUUAUUCAAAAAUAUUAACAUUAAGCAACAGAGGAUUGAGCAUCA
B14: 23457221_23464205_356_3pUTR_ENSG00000168434_ENST00000307149|human|control|control (ssRNA)
RNA: GGGAGUUCUACAGUCCGACGAUCUUUAGGGCUUCAACAUCACGGAGCACUUUGGGCAUGUUCUGGAGAGCUUGGUGACUUGUUUCCUCCACGGCGUGGUUCACCUCUUGGAUGAACAGCUGCAGCUUCAUCACCAGGGUGGCUCAACAGAGGAUUGAGCAUCA
B15: chrM:5821:5822:+_ENSMUSG00000064351_ENSMUST00000082402|mus_mus|FALSE|FALSE (ssRNA)
RNA: GGGAGUUCUACAGUCCGACGAUCCUGUGUUAUGGCUGGGGGUUUCAUGUUGAUAAUAGUGGUAAUAAAAUUAAUUGCACCUAAAAUAGAUGACACUCCAGCUAAAUGAAGGGAGAAAAUUGUUAGGUCUACUGAUGCUCCUGCCAACAGAGGAUUGAGCAUCA
B16: chr12:39756943:39756944:-_ENSG00000139116_ENST00000544797|hu_mus|hu_hu_hu_mus_False|8_78 (ssRNA)
RNA: GGGAGUUCUACAGUCCGACGAUCGGUUUGGCUGUUACCCCCAAGGGAAUCCUGCAAUAGUCUUGUUAGCUUAGAGUCUCUGUAAGGGACAUGGGUGGCUCUCUUGCUCUUGUCCCCCAAGGCGCUGAUUACAUUGCCAAGAGCCAACAGAGGAUUGAGCAUCA
B17: chr4:115894766:115894767:+_ENSMUSG00000028698_ENSMUST00000030464|mus_hu|mus_mus_mus_hu_True|58_68 (ssRNA)
RNA: GGGAGUUCUACAGUCCGACGAUCUUCCACACGGAAAUGUACUUCGGGUUUUCCAACGGCCAGUACCGUCCAGCCAAACUACUAGGAACAGGGUCCUCCCCCUCUCUCCUACAGAACACAACAAAAUGCCCCCGAACUUUCAAGCAACAGAGGAUUGAGCAUCA
B18: 21504503_21511602_2340_CDS_ENSMUSG00000033653_ENSMUST00000117598|mouse|control|control (ssRNA)
RNA: GGGAGUUCUACAGUCCGACGAUCAACUUGCUCAUCUGUAAGAGUCUUCCCUGCAUUCAGAGGUGGGGCGAUGACUUUGAAAAGCUUCUCCAUCGGACUGAUAAACUCAUUCAUGCCUCGGUUGUAGACAUAGACCAUGGCGUCCAACAGAGGAUUGAGCAUCA
B19: chr2:168013125:168013126:-_ENSMUSG00000051149_ENSMUST00000088001|mus_hu|motif|central (ssRNA)
RNA: GGGAGUUCUACAGUCCGACGAUCCUCCCAUGUAGUGUUUUUCAAAUAAAAGUCAUUAGGUUCAAAUUGUUUAAAAUCUUCGGUAUGUUCUUUACAGUAUUCCAACCCAAUGUCACUAAGUAUUUUUUUCACAGUUUUCCGGGCCAACAGAGGAUUGAGCAUCA
B20: chr2:162087991:162087992:+_ENSG00000136560_ENST00000392749|hu_hu|motif|central (ssRNA)
RNA: GGGAGUUCUACAGUCCGACGAUCUUUUCCCGGGGAAUCGAGUGAGGGAAAAGGUGCAUCAGAUGGGUCCAGAAGUGGGAAGCGGUUUACAUAUAAUGCAUUAUGGUCUCCAGGUGGCAAACACGCAGCUCUAUCCAGAGUUGUCAACAGAGGAUUGAGCAUCA
B21: 202488984_202490807_1239_3pUTR_ENSG00000155755_ENST00000286196|human|control|control (ssRNA)
RNA: GGGAGUUCUACAGUCCGACGAUCGAGGCUUUGAUUUCUUUCUCUUUAUCAGGAUAUUCUUCCACCUCUGAGGAGAACAUUAACUCUUCACUAAGAUCCAUGCCUGGCCUAUAAGACAAAAAUAGCCAAGAUAAUCCAACCAGACAACAGAGGAUUGAGCAUCA
B22: chr11:82972979:82972980:-_ENSG00000137500_ENST00000527495|hu_mus|motif|central (ssRNA)
RNA: GGGAGUUCUACAGUCCGACGAUCGCAGCAGCGGCAGCAUCAUCGUCAGUUCUCCUUCCAGAACCUAUAAAACCCCAAUGCGGUCGCCAAGCAAGUGAACACUGAGGCUGCAAGAUAACGAAUUGUUUCAAGUUUGCUCGACUCCAACAGAGGAUUGAGCAUCA

What follows are binders tested against T1, UNK ZnF1-3 (assay: nsRBNS (natural sequence RNA bind-n-seq); RBNS binding buffer (assumed for nsRBNS): 25 mM Tris pH 7.5, 150 mM KCl, 3 mM MgCl2, 0.01% Triton X-100, 500 ug/ml BSA, 20 U/ml SUPERase-In, 4 C; UNK is unkempt and MSI1 is Musashi-1; names of the RNAs are library labels; protein concentration not given here; high values mean tight binding).

| Binder | binding signal |
| --- | --- |
| B1 | 0.592 enrichment R |
| B2 | 0.345 enrichment R |
| B3 | 1.33 enrichment R |
| B4 | 1.18 enrichment R |
| B5 | 0.733 enrichment R |
| B6 | 0.886 enrichment R |
| B7 | 0.771 enrichment R |
| B8 | 1.79 enrichment R |
| B9 | 1.7 enrichment R |
| B10 | 0.879 enrichment R |
| B11 | 0.693 enrichment R |
| B12 | 0.559 enrichment R |
| B13 | 1.18 enrichment R |
| B14 | 0.804 enrichment R |
| B15 | 1.19 enrichment R |
| B16 | 0.614 enrichment R |
| B17 | 1.14 enrichment R |
| B18 | 1.06 enrichment R |
| B19 | 1.24 enrichment R |
| B20 | 1.36 enrichment R |
| B21 | 1.52 enrichment R |
| B22 | 1.32 enrichment R |

— publication PMC12136788
